Measured values from article PMC4336329 (PLoS ONE, 2015).
The whole screen tested about 310,000 compounds, of which about 14,000 (4.5%) showed an effect of 50% or more. The effect is printed as a negative number. The list shows a part of the results.

These compounds were tested against human ether-à-go-go-related gene (hERG) potassium channel (human, UniProt Q12809) (assay: primary screen, population patch clamp on CHO cells stably expressing hERG).
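Further: peak tail current of the secondary pulse compared with the same well before compound.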

human ether-à-go-go-related gene (hERG) potassium channel, sequence (Q12809 whole entry, looked up): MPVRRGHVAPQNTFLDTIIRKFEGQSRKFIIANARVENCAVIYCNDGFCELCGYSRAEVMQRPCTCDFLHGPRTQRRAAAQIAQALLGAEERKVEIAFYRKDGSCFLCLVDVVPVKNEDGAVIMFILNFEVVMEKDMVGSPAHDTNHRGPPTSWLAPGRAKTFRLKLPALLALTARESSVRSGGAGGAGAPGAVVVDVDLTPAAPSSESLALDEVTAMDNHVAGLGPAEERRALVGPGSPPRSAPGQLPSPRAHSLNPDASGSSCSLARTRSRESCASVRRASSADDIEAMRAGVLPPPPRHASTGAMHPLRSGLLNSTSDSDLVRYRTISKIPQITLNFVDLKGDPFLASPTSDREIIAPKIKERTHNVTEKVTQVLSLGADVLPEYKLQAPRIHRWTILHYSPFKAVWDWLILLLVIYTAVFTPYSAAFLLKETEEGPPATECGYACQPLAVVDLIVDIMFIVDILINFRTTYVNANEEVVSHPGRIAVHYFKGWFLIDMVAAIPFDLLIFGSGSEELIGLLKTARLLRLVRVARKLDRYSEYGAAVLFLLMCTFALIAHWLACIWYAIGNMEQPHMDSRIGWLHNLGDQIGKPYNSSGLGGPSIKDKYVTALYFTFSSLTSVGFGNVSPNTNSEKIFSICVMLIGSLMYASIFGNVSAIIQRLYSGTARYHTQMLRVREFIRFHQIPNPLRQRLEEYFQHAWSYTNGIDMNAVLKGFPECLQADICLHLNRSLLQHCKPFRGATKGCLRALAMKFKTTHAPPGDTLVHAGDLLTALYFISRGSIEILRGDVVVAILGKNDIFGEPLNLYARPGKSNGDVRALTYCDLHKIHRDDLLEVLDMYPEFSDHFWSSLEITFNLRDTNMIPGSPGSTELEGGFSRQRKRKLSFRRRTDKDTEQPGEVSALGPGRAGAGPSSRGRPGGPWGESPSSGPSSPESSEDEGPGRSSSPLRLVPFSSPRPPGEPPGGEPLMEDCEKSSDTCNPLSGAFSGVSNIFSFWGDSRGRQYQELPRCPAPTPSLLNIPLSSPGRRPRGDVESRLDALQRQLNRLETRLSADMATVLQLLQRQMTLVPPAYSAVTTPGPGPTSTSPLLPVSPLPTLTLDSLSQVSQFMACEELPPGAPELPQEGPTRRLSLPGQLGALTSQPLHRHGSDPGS

Row | SMILES | hERG current change (%, negative = inhibition) at 10uM
1 | Cc1ccc(NC(=O)c2cc([N+](=O)[O-])ccc2NCc2cccnc2)cc1 | -82.7%
2 | Cc1cc(C)nc(SCc2nc3nc(C)cc(C)n3c2Br)n1 | -22.6%
3 | CN(C)S(=O)(=O)N1CCCC(C(=O)c2ccc(-c3ccccc3)cc2)C1 (stereo not shown) | 6.78%
4 | CN(C(=O)COC(=O)c1cnc(Cl)c(Cl)c1)C1CCS(=O)(=O)C1 (stereo not shown) | 2.87%
5 | CCN(CC)C(=O)c1ccc(NC(=O)c2ccc(-c3nn(C)c(=O)c4ccccc34)cc2)cc1 | 8.63%
6 | CCC(c1nnc(SCC(=O)N2CC3(C)CC2CC(C)(C)C3)o1)N(C)C (stereo not shown) | 4.96%
7 | O=C(Nc1nc(-c2ccco2)c(-c2ccco2)s1)C1CC(=O)N(c2ccc3c(c2)OCCO3)C1 (stereo not shown) | -3.9%
8 | Cc1cc2c(=O)oc(-c3ccc(F)cc3)nc2s1 | 23.3%
9 | N=C1C(c2nc(-c3ccc(F)cc3)cs2)=C(O)CN1Cc1ccc(Cl)cc1 | 2.83%
10 | Nn1c(SCC(=O)N2CCCc3ccccc32)nncc1=O | 6.33%
11 | COc1ccccc1N1CCN(C(=O)c2ccco2)CC1 | 16.5%
12 | O=C(O)c1ccccc1-c1ccccc1C(=O)Nc1ccc2c(c1)CCC2 | 16.8%
13 | CC(C)c1ccccc1NC(=O)Cn1c(-c2ccccc2Cl)nc2ccccc21 | -15.1%
14 | COc1ccccc1N/C(=N/S(=O)(=O)c1ccc(C)cc1)c1ccccc1 | -31%
15 | CCS(=O)(=O)NCc1ccc2c(c1)cc(C)n2C | 12.4%
16 | COc1cccc(C(=O)N2CCN(Cc3ccccc3[N+](=O)[O-])CC2)c1 | -14.5%
17 | COc1c(O)ccc(/C=C(\C#N)c2nc3ccccc3[nH]2)c1[N+](=O)[O-] | -0.111%
18 | O=c1cccc2n1CC1CC2CN(S(=O)(=O)c2ccc(F)cc2)C1 (stereo not shown) | 12.1%
19 | Cc1c(Cl)c(C(=O)NC2C3CC4CC(C3)CC2C4)nn1C (stereo not shown) | -9.28%
20 | O=C(CN1CCN(c2ccccn2)CC1)Nc1cc(F)ccc1F | -26%
21 | O=C1C=CC(=O)N1c1ccc(Sc2ccc([N+](=O)[O-])cc2)cc1 | 4.77%
22 | Cc1cc(C)c(S(C)(=O)=O)c(N(C)N)n1 | 21.8%

Row | SMILES | hERG current change (%, negative = inhibition) at 10uM
23 | Cc1ccc(S(=O)(=O)Nc2cc(C(=O)NCCN(C)C)ccc2N2CCCCC2)cc1 | -36.8%
24 | O=C(Cc1ccc([N+](=O)[O-])cc1)c1c(O)cc(O)cc1O | -0.546%
25 | COc1ccc(C(=O)OCC(=O)c2cc(C)n(CC3CCCO3)c2C)cc1[N+](=O)[O-] (stereo not shown) | -42.9%
26 | Nc1c(C(=O)CSc2n[nH]c(-c3ccccc3Br)n2)c(=O)[nH]c(=O)n1C1CC1 | 7.8%
27 | COc1cc(-c2c(NC(=O)c3ccco3)oc3ccccc3c2=O)cc(OC)c1OC | 8.23%
28 | O=C(CSc1nnnn1-c1ccccc1)NC1CCCc2ccccc21 (stereo not shown) | -9.9%
29 | COCCNC(=O)c1cc(-c2ccccc2OC)on1 | -2.42%
30 | CC(=O)c1cc2c(cc1NC(=O)Cn1nc(C)c(C)c(C#N)c1=O)OCO2 | -6.83%
31 | CCCn1nc(NC(=O)C(C)(C)C)c2cc3cc(OC)ccc3nc21 | -31.5%
32 | Cc1ccc(-c2nnc3n2N=C(c2ccccc2Br)CS3)cc1 | -1%
33 | O=C(NCc1cccs1)C1CCCN(C(=O)Nc2ccc(F)cc2)C1 (stereo not shown) | -16.9%
34 | CCCC(=O)Nc1cc2c3c(c1)CCN3C(=O)CC2 | 25.8%
35 | COC(=O)C(CCCCNC(=O)c1ccc([N+](=O)[O-])cc1)NC(=O)c1ccc([N+](=O)[O-])cc1 (stereo not shown) | -76.3%
36 | CCOc1cc(NC(=O)C2CC2)c(OCC)cc1NC(=O)c1ccccn1 | -9.6%
37 | CO/N=C/c1ccc(N2CCN(C(=O)c3ccc(F)cc3)CC2)c([N+](=O)[O-])c1 | -78.3%
38 | CCOc1c(Br)cc(CNCc2cccs2)cc1OC.Cl | -25.6%
39 | CCC(=O)N1CCN(c2ccc(Cl)cc2NC(=O)Cc2ccccc2)CC1 | -46.3%
40 | CCc1nnc(NC(=O)CSc2ccc(-c3ccccc3OC)nn2)s1 | -7.08%
41 | CC(C)CCCN1C(N(C)C)=NC[C@@H]1C | -1.76%
42 | CN(C(=O)C1CCC(=O)N(CCc2ccc(Cl)cc2)C1)C1CCOCC1 (stereo not shown) | 10.7%
43 | COc1cccc(-c2noc(-c3ccc(Cl)nc3)n2)c1 | 21.9%
